Assay results as given in PubChem BioAssay AID720709 (National Center for Advancing Translational Sciences (NCATS), 2013).
The whole screen tested about 360,000 compounds, of which about 520 (0.14%) were called active. Inconclusive results, whose numbers are uncertain, are shown with a selection of clear calls. Calls follow the shape of the dose curve; as a rule, active = well fitted inhibition curve with a large enough effect; inconclusive = small, poorly fitted or top-dose-only effect; inactive = no such curve, though single readings can be large or run the other way. Potencies of inconclusive entries are left out as doubtful fits.
Also: nearly all actives have a fitted effect of over 50% in size.
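For activity change, negative = inhibition in this document: plate controls were vehicle for no effect and positive control for full effect.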
Potency is read from the fitted curve at half-maximal effect; tags tell the direction and shape of the fitted curve.

These compounds were tested against Rap guanine nucleotide exchange factor 3 (Homo sapiens) (UniProt O95398) (assay: qHTS for Antagonist of cAMP-regulated guanine nucleotide exchange factor 3 (EPAC1): primary screen). Conditions: EPAC1 GEF assay, Rap1b-BODIPY-GDP exchange fluorescence; activity change, negative = inhibition: at 115 µM (top of the series).
Chain of UniProt O95398 (O95398 whole entry, looked up): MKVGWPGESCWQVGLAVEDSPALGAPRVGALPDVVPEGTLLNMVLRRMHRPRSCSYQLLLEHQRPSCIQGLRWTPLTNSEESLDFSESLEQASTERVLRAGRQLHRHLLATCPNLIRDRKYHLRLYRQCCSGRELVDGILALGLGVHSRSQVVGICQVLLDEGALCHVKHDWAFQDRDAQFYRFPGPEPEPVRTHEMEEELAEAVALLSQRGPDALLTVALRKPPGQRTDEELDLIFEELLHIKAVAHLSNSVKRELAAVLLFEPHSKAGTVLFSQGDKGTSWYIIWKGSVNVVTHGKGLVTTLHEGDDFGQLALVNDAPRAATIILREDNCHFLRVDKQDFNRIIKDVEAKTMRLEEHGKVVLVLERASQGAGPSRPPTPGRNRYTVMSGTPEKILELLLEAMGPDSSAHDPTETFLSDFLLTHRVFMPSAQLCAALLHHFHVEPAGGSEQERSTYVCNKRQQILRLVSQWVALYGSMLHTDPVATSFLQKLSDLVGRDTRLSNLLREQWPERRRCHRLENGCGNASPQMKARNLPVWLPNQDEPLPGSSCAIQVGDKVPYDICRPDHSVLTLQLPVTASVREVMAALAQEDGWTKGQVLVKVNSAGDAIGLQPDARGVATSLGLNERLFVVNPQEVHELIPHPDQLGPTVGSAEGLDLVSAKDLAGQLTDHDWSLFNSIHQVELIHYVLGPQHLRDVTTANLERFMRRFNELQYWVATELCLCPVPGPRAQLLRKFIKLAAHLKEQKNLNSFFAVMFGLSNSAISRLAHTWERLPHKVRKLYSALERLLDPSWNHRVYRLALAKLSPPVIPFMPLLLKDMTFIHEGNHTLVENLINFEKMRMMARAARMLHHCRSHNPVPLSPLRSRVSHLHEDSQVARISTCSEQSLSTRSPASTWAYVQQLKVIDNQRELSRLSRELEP
In the case of N#C/C(=C\N1CCN(Cc2ccc3c(c2)OCO3)CC1)c1nc2ccccc2s1, the “activity change, negative = inhibition” value is reported as inactive: -3.23%.
For O=C1C=CC(=O)c2c(O)c(CO)c(CO)c(O)c21, the Potency was inconclusive [inhibitor, partial curve, poor fit].
For NS(=O)(=O)c1ccc(CCNc2ccn3nc(-c4ccccc4)cc3n2)cc1, the Potency was inconclusive [inhibitor, partial curve].
For Cc1ccc(-c2ccc(SCC(=O)Nc3cc(C)on3)nn2)cc1, the Potency was inconclusive [inhibitor, partial curve, poor fit].
In the case of COc1ccc(S(=O)(=O)NCCSCc2cccc(C)c2)cc1Br, the Potency is reported as inconclusive [inhibitor, single point].
For CC(C)Cc1ccc(/C(=N/O)C(=O)O)s1, the activity change, negative = inhibition was inconclusive: 1.91% [inhibitor].
With COc1cc(/C(C)=N/NC(=O)CSc2nnc(C)s2)ccc1O the Potency was inconclusive [inhibitor, single point].
With CCc1cccc2sc(NC(=O)c3ccc(N4C(=O)CCC4=O)cc3)nc12 the Potency was inconclusive [inhibitor, single point].
For CCCNC(=O)c1ccc2c(=O)c(O)c(C)[nH]c2c1, the Potency was inconclusive [inhibitor, single point].
COC(=O)c1sc2nc[nH]c(=O)c2c1C was tested, and the Potency was inconclusive [inhibitor, single point].
C[C@H](CO)N1C[C@H](C)[C@@H](CN(C)Cc2ccncc2)Oc2c(NC(=O)Cc3ccccc3)cccc2C1=O was tested, and the Potency was inconclusive [inhibitor, single point].
For COc1ccccc1N1CCN(Cc2nc3ccccc3[nH]2)CC1, the Potency was inconclusive [inhibitor, full curve].
For O=C(NC(Nc1cc(C(F)(F)F)ccc1Cl)C(=O)c1ccccc1)c1ccccc1 (stereo not given), the Potency was inconclusive [inhibitor, partial curve].
N#C/C(=C/c1ccc(N2CCOCC2)o1)C(=O)Nc1ccccc1 was tested, and the “activity change, negative = inhibition” value was inactive: 7.96%.
For Cc1cc(C)nc(SCNC(=O)c2ccc(Cl)cc2)n1, the “activity change, negative = inhibition” value was inactive: -15%.
With O=C(Nc1cccc(-c2csc(Nc3ccccc3)n2)c1)c1ccccc1 the Potency was inconclusive [inhibitor, partial curve].
CC1=NN(c2ccc(C)c(C)c2)C(=O)C1C(c1cccc(O)c1)C1C(=O)N(c2ccc(C)c(C)c2)N=C1C (stereo not given) was tested, and the Potency was inconclusive [inhibitor, full curve].
For CC(C)(C)C(=O)N1CCN(S(=O)(=O)c2ccc3c(c2)OCCCO3)CC1, the “activity change, negative = inhibition” value was inactive: 6.58%.
For O=C(NCCc1ccccc1)c1cccc(NC(=O)c2ccccc2)c1, the Potency was inconclusive [inhibitor, single point].
For CC(C)(C)c1ccc(C(=O)NC(=S)NNC(=O)c2cccs2)cc1, the Potency was inconclusive [inhibitor, single point].
For O=C(CC(C(=O)O)P(=O)(c1ccccc1)c1ccccc1)c1ccc(Br)cc1 (stereo not given), the Potency was inconclusive [inhibitor, single point].
With O=C1/C(=C\c2ccc([N+](=O)[O-])cc2)CS(=O)(=O)C/C1=C/c1ccc([N+](=O)[O-])cc1 the Potency was inconclusive [inhibitor, full curve].
In the case of COc1ccccc1NC(=S)NC(NC(C)=O)C(Cl)(Cl)Cl (stereo not given), the “activity change, negative = inhibition” value is reported as inactive: -14.2%.
In the case of Cc1ccc2c(c1)c(=O)c1c3n2CCN(C(=O)CCl)C3CC1 (stereo not given), the “activity change, negative = inhibition” value is reported as inactive: -12.7%.
N#Cc1c(-c2ccccc2)nc(SCC(=O)Nc2ccc(OC(F)(F)Cl)cc2)[nH]c1=O was tested, and the Potency was inconclusive [inhibitor, single point].
With C=CC[C@@H](CC(=O)N(CCO)Cc1ccccc1)C(=O)NC[C@@H](OC(=O)[C@@H](CC=C)Cc1ccc(F)cc1)c1ccccc1 the Potency was inconclusive [inhibitor, full curve, poor fit].
With CNC(=S)N/N=C/c1c(C)cccc1Cl the “activity change, negative = inhibition” value was inactive: -17.7%.
In the case of O=C(Nc1ccc(S(=O)(=O)N2CCCC2)cc1)C1COc2ccccc2O1 (stereo not given), the Potency is reported as inconclusive [inhibitor, single point].
CNC(=O)C1CC(=O)N(c2ccc(OCC(=O)Nc3ccc(OC)cc3)cc2)C1 (stereo not given) was tested, and the Potency was inconclusive [inhibitor, single point].
CC(C)=CCc1c(O)cc2oc3c(CC=C(C)C)c(O)c(O)c(CC=C(C)C)c3c(=O)c2c1O was tested, and the Potency was inconclusive [inhibitor, partial curve].
In the case of CCOc1ccc(CCN2C(=O)C(=O)N([C@@H](Cc3ccccc3)CN3CCC[C@H]3CN3C(=O)C(=O)NC[C@@H]3Cc3ccc(O)cc3)C[C@@H]2Cc2ccc(O)cc2)cc1, the “activity change, negative = inhibition” value is reported as inactive: -9.38%.
For CCc1cc(=O)oc2cc(C)c(CN3CCCC3)c(O)c12, the Potency was inconclusive [inhibitor, full curve, poor fit].
In the case of O=C(O)/C=C/C(=O)c1c(-c2ccccc2)[nH]c2ccccc12, the Potency is reported as inconclusive [inhibitor, full curve, poor fit].
Cc1cc(NC(=O)CCCN2C(=O)c3cccnc3C2=O)no1 was tested, and the “activity change, negative = inhibition” value was inactive: -10.4%.
COc1ccc(-c2cc(C(F)(F)F)nc(S(C)(=O)=O)n2)cc1 was tested, and the Potency was inconclusive [inhibitor, partial curve].
In the case of O=C(CNC(=S)NC(=O)c1cccs1)c1ccccc1, the Potency is reported as inconclusive [inhibitor, partial curve].
In the case of O=C(Nc1sc2c(c1C(=O)O)CCCC2)c1cccc(Cl)c1, the Potency is reported as inconclusive [inhibitor, single point].
For Cn1cc(C2=C(c3ccc(Cl)cc3Cl)C(=O)NC2=O)c2ccccc21, the Potency was inconclusive [inhibitor, single point].
O=c1cc(O)nc(SCc2ccccc2)n1-c1ccccc1 was tested, and the Potency was inconclusive [inhibitor, partial curve].
Cc1ccc2c(c1)C1CN(C)CCC1N2S(=O)(=O)c1cc(C(F)(F)F)ccc1Cl (stereo not given) was tested, and the Potency was inconclusive [inhibitor, single point].
Cc1ccc(C(C(=O)NC2CCCCC2)N(Cc2ccccc2)C(=O)Cc2c[nH]c3ccccc23)o1 (stereo not given) was tested, and the Potency was inconclusive [inhibitor, single point].
For CO[C@@H]1CN(C)C(=O)c2ccc(NC(=O)c3ccccc3F)cc2OC[C@@H](C)N(CC2CCOCC2)C[C@@H]1C, the “activity change, negative = inhibition” value was inactive: -11%.
CCn1c(SCC(=O)N/N=C/C=C\c2ccco2)nc2ccccc21 was tested, and the Potency was inconclusive [inhibitor, partial curve].
Cc1cc[n+](CC(=O)Nc2cccc(C)c2)cc1 was tested, and the Potency was inconclusive [inhibitor, partial curve, poor fit].
For C/C(=N/Nc1ccc([N+](=O)[O-])cc1)c1c[nH]c2ccccc12, the Potency was inconclusive [inhibitor, single point].
COc1ccc(C)cc1NC(=O)c1cc(-c2ccccc2)nc2c1cnn2C(C)C was tested, and the Potency was inconclusive [inhibitor, partial curve].
In the case of CCCCNC(=O)CSc1nc2ccc(C)cc2[nH]1, the “activity change, negative = inhibition” value is reported as inactive: -22%.
With CN(c1cccc(NC(=O)CN(c2ccc(Cl)c(Cl)c2)S(=O)(=O)c2ccccc2)c1)S(C)(=O)=O the Potency was inconclusive [inhibitor, single point].
For COc1ccc2cc(C3CC=C(COC(C)=O)CN3S(=O)(=O)c3ccccc3[N+](=O)[O-])n(C(=O)OC(C)(C)C)c2c1 (stereo not given), the “activity change, negative = inhibition” value was inactive: -3.88%.
With COc1ccc(-c2cc(C(=O)OCC(=O)N3CCCC3)c3ccccc3n2)cc1 the Potency was inconclusive [inhibitor, single point].
For COc1ccc2sc(/C=C/c3ccccc3O)[n+](C)c2c1, the “activity change, negative = inhibition” value was inactive: -2.62%.
In the case of O=S(=O)(Nc1nccs1)c1ccc(Nc2nnc(-c3ccccc3)c3ccccc23)cc1, the Potency is reported as inconclusive [inhibitor, single point].
For CCOC(=O)c1nnc(-c2ccc(C)cc2)nc1N1CCSCC1, the Potency was inconclusive [inhibitor, single point].
In the case of O=C(C1=C(O)C(=O)N(CC2CCCO2)C1c1cccnc1)c1ccco1 (stereo not given), the “activity change, negative = inhibition” value is reported as inactive: -5.84%.
With COc1cccc(NC(=S)C(C#N)=C2N(C)c3ccccc3N2C)c1 the Potency was inconclusive [inhibitor, partial curve].
In the case of CCOC(=O)[C@]12CCC=C1N(Cc1ccco1)C(=O)[C@H](CC(=O)NCCCCc1ccccc1)C2, the Potency is reported as inconclusive [inhibitor, single point].
In the case of CC(=O)c1sc(NC(=O)c2c(F)cccc2F)nc1C, the Potency is reported as inconclusive [inhibitor, single point].
With O=C(CCl)Nc1cccc(S(=O)(=O)NC2=NCCCCC2)c1 the “activity change, negative = inhibition” value was inactive: -4.64%.
With Cc1ccc2sc(NNC(=O)c3ccc4c(c3)OCCO4)nc2c1C the Potency was inconclusive [inhibitor, full curve, poor fit].
With CCOC(=O)N1CCc2c(sc3nc(SC(C)C)n(N)c(=O)c23)C1 the Potency was inconclusive [inhibitor, partial curve, poor fit].
For Cc1ccc(NC(=O)c2cnn(-c3ccccc3)c2C)cc1C, the Potency was inconclusive [inhibitor, partial curve].
In the case of CCc1csc(CCNC(=O)C2CCC(=O)N(Cc3ccccc3F)C2)n1 (stereo not given), the “activity change, negative = inhibition” value is reported as inactive: -5.81%.
In the case of CN(Cc1ccccc1)C(=O)CN1CCN(S(=O)(=O)c2ccc(Cl)c(Cl)c2)CC1, the “activity change, negative = inhibition” value is reported as inactive: -1.77%.
For O=[N+]([O-])c1ccc2c(c1)C=C1CCCCC1(N1CCCC1)O2 (stereo not given), the “activity change, negative = inhibition” value was inactive: -9.1%.
With COc1ccc(C)cc1-n1c(=O)c2ccccc2c2ccccc2c1=O the Potency was inconclusive [inhibitor, single point].
